We go through 96 compounds from PubChem BioAssay AID485344 (National Center for Advancing Translational Sciences (NCATS), 2010).

Out of some 340,000 compounds screened, about 6,900 (2%) were called active. Cut-off read from the data, not from the text of the source: active = inhibition above about 30%; inactive = below that, where a call was filed. This is a selection; strong and weak results do not stand in their true shares. Where no call is shown, the source filed none.

Chain of UniProt P14416 (P14416 whole entry, looked up): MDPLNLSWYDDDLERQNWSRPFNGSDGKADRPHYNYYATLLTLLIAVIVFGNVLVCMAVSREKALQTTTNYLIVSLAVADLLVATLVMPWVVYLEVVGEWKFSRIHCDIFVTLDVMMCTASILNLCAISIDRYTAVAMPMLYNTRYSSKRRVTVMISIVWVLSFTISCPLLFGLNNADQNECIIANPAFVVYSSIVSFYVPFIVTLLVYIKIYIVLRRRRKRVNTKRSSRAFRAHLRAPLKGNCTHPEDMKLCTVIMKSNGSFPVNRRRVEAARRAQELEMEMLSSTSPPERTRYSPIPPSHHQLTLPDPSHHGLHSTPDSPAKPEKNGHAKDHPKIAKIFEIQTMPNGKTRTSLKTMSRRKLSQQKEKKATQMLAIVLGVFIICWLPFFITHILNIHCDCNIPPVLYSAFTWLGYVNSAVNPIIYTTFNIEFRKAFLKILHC

This experiment concerns the target D(2) dopamine receptor (Homo sapiens) (UniProt P14416). Nature of the experiment: HTS Assay for Allosteric Antagonists of the Human D2 Dopamine Receptor: Primary Screen for Antagonists. Note: 0% is about no effect. The settings on record: HEK293 TREx D2 cells, calcium flux, dopamine EC80; at 10 µM; stronger effect = higher value. In a few lines:
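Overnight-induced (tetracycline, 30 C) HEK293 T-REx cells carrying force-coupled D2 receive a no-wash calcium dye, then compound, then EC80 dopamine at 180 s; signals are read kinetically throughout.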
A general note: Calcium flux is commonly read through the fluorescence of an indicator in the cells.
For orientation: inhibition means the relative decrease from the control value, in per cent. As to `COc1ccc(NC(=O)Cn2nnc3sc4c(c3c2=O)CCCC4)cc1`, the inhibition is -1.41%. The value for `COCCn1c(SCC(=O)c2c[nH]c3ccccc23)nc2cc(C(=O)NC(C)C)ccc2c1=O` was 8.07%. The value for `COCCCNC(=O)c1ccc(C)c(-n2c(C)nc3cccnc32)c1` was -3.73%. The value for `Cc1nc2ccn(Cc3cccnc3)c(=O)c2cc1C(=O)Nc1ccc(F)cc1F` was -0.398%; that for `O=S(=O)(Nc1ccc(F)cc1F)c1ccc(-n2cccn2)cc1` was 0.976%. On to `CCOc1ccc(-c2nnc(SCC(=O)c3ccc(Br)cc3)n2-c2ccccc2)cc1`, for which the inhibition was -2.45%. The value for `O=C(CN1C(=O)CCc2cc(S(=O)(=O)N3CCOCC3)ccc21)NCc1ccc(Cl)cc1` was -5.85%; that for `O=C(Nc1cccc(C(F)(F)F)c1)c1ccc2snnc2c1` was 15.2%; that for `CC(=O)c1ccc(NC(=O)Cn2c(=O)nc(-c3ccccc3)c3cc(Cl)ccc32)cc1` was -14.7%. The value for `CCc1ccc(NC(=O)Nc2nnc(N(C)C3CCCCC3)s2)cc1` was 10.6%. The value for `CCC(C)NC(=O)CSc1nc2cc3c(cc2c(=O)n1Cc1ccc(C(=O)NCCc2ccc(OC)c(OC)c2)cc1)OCO3` (stereo unspecified) was -18.6%. As to `Cc1cccc(N2CCN(C(=O)C3CCN(c4ncnc5c4nc4n5CCCCC4)CC3)CC2)c1C`, the inhibition stood at 13.8%. The value for `CCOC(=O)C1CCCN(c2ncnc3c2nnn3C)C1` (stereo unspecified) was -4.22%; that for `COc1cccc(NC(=O)c2oc3ccccc3c2NC(=O)c2cc3ccccc3o2)c1` was 5.41%; that for `Cc1cccc(C(=O)Nc2ccc(S(=O)(=O)N(Cc3ccccc3)c3ccccc3)cc2)c1` was 5.98%.

Regarding `COc1cc(NC(=O)NCCN2CCN(c3ccccc3)CC2)cc(OC)c1OC`, the inhibition is active: 76%. The value for `COc1ccc(C(=O)NCCn2cc(SC(C)c3ccccc3)c3ccccc32)cc1OC` (stereo unspecified) was 9.88%. The value for `CCN(CC)c1ccc2cc(-c3nc(-c4ccccc4F)no3)c(=O)oc2c1` was -7.48%. With `Cc1cc(C)c(S(=O)(=O)Nc2ccc(-c3ccc(N4CCCCCC4)nn3)cc2)cc1C`, the inhibition is 12.1%. For the compound `Cn1c(N)c(C(=O)NCc2ccccc2Cl)sc1=S`, the inhibition was active: 52.9%. In the case of `Cc1ccc(C(=O)Nc2ccc(S(=O)(=O)Nc3onc(C)c3C)cc2)cc1`, the inhibition was 5.52%. The value for `CCOC(=O)c1ccc(NC(=O)Cn2c(=O)cc(C(F)(F)F)c3c(C)nn(C)c32)cc1` was 5.45%. The value for `Fc1ccc(CSc2nc(NCc3ccccc3)c3ccccc3n2)cc1` was 5.89%.

Regarding `COc1ccc(-c2cc(C(=O)Nc3cccc(O)c3)on2)cc1OC`, the inhibition was 7.94%. The value for `CC(C)(Oc1ccc(Cl)cc1)C(=O)NC1CCN(Cc2ccccc2)CC1` was active: 71.8%; that for `COc1ccc(CNC(=O)Cn2c(=O)cc(C)c3c(C)nn(-c4cccc(Cl)c4C)c32)cc1` was -7.11%. The value for `COc1cc(NC(=O)CNS(=O)(=O)c2cccs2)cc(OC)c1OC` was 10.7%; that for `O=C(NCc1cccs1)c1ccc(CSc2nc3ccncc3n2Cc2ccccc2)cc1` was 0.111%. Consider `CC1CCC(NC(=O)c2ccc(CS(=O)(=O)c3cccc(C(F)(F)F)c3)o2)CC1` (stereo unspecified), for which the inhibition is -25%. The value for `Cc1ccc(C)c(Cn2c(=O)n(Cc3ccccc3)c(=O)c3c2c2cc(C)ccc2n3C)c1` was -4.37%. The value for `CCOc1ccc(S(=O)(=O)NCCc2csc3nc(-c4ccc(F)cc4)nn23)cc1` was -8.38%; that for `COc1cccc(C2=NS(=O)(=O)N(C)C(C(=O)Nc3ccccc3SC)=C2)c1` was -0.2%. Regarding `COc1ccc(CC(=O)Nc2ccc(S(=O)(=O)NCC3CCCO3)cc2)cc1` (stereo unspecified), the inhibition is active: 31.8%. `CCOc1cc(-c2ccc(OC(=O)c3ccc(C)cc3)c(OC)c2)cc(=O)c2c(C)oc(C)c12`: the inhibition is -20.2%. The value for `Nc1c(-c2nc(-c3ccccc3)no2)nnn1CC(=O)Nc1cccc(F)c1` was -2.45%. The value for `CC(=O)c1ccc(NC(=O)CN(C)S(=O)(=O)c2cc3c(cc2Cl)NC(=O)CO3)cc1` was 11.2%. The value for `CCCN(CCC)S(=O)(=O)c1ccc(C(=O)Nc2cccc(-c3nc4ccccc4[nH]3)c2)cc1` was 5.15%; that for `CSCc1ccc(C(=O)Nc2cc(C)cc(C)c2)cc1` was active: 30.3%. On to `CCOC(=O)c1ccc(Nc2c(-c3cccc(O)c3)nc3nc[nH]n23)cc1`, for which the inhibition came to 19.8%. The value for `N#Cc1c(-n2ncnc2-c2ccccc2C(F)(F)F)sc2c1CCCCC2` was 12.8%. The value for `Cc1ccc(NCc2cccn2-c2nnc(N3CCC(C(=O)NCCC(C)C)CC3)s2)cc1` was -0.602%; that for `Cc1cccc(CSCc2ccc(C(=O)NCCc3ccccc3)o2)c1` was 24.6%. The value for `COc1ccccc1CCNC(=O)Cc1c(C)c2cc3c(C)coc3cc2oc1=O` was -13.5%; that for `Cc1cc(C)c2c(CC(=O)Nc3ccc(S(=O)(=O)N4CCCCC4)cc3)coc2c1` was -5.09%. Regarding `O=C(c1cc2ccccc2oc1=O)N1CCN(c2ccc(F)cc2)CC1`, the inhibition was found to be 5.7%. The value for `COc1cccc(-c2nn(C)c3sc(C(=O)NCc4ccco4)cc23)c1` was active: 36.2%; that for `Cc1ccc(CNC(=O)c2c(C)oc3nc(C)nc(N4CCOCC4)c23)cc1` was 1.14%. The value for `CC(=O)C1=C(C)NC2=C(C(=O)CC(C)(C)C2)C1C` (stereo unspecified) was active: 34%; that for `CCc1ccc(-n2nc3cc(C)c(NC(=O)c4cc(OC)cc(OC)c4)cc3n2)cc1` was -8.71%; that for `c1ccc(Cn2c[n+](Cc3ccccc3)cn2)cc1` was active: 43.1%. The value for `CC(C)(C)c1ccc(C(=O)NCC(c2cccs2)S(=O)(=O)c2cccs2)cc1` (stereo unspecified) was -9.17%; that for `N#Cc1ccsc1NC(=O)CN1CCN(c2ccccn2)CC1` was active: 30.8%.

Regarding `Cc1cccc(C)c1NC(=O)Cn1c(=O)n(Cc2ccc3c(c2)OCO3)c(=O)c2oc3ccccc3c21`, the inhibition is -0.325%. As to `CCOc1cc(C(=O)Nc2ccc(-c3nc4ccccc4s3)cc2Cl)cc(OCC)c1OCC`, the inhibition is 20.2%. The value for `CCOc1ccc(OCC)c(NC(=O)C(NS(=O)(=O)c2cccs2)c2ccccc2)c1` (stereo unspecified) was 17.8%; that for `COc1ccc(C(=O)Nc2cc(S(=O)(=O)c3ccc(Cl)cc3)c(O)c(C)c2C)cc1` was 4.18%; that for `O=C(Nc1ccc(Br)cc1)C(Cc1ccccc1)NS(=O)(=O)c1cccc2nsnc12` (stereo unspecified) was -7.61%. The value for `O=C(Cc1ccc(F)cc1)NCCS(=O)(=O)N1CCN(c2ccccc2)CC1` was active: 46%; that for `Cc1nn(CCCC(=O)NCc2ccccc2)c(=O)c2cc3sccc3n12` was -0.237%; that for `CC(C)(C)OC(=O)N1CCC(c2c(C(=O)NCc3ccco3)cnn2-c2ccccc2Cl)CC1` was 6.02%. The value for `COC(=O)c1ccccc1NS(=O)(=O)c1ccc2c(c1)CCCN2C(C)=O` was 0.127%; that for `CC(=O)c1cc(-c2ccccc2)n(CCC(=O)NC(C)c2ccccc2)c1C` (stereo unspecified) was -19.3%.

In the case of `CCCC(=O)n1nc(-c2cccnc2)nc1NCc1ccc(OC)cc1`, the inhibition is -5.55%. The value for `O=C(CNC(=O)C(c1ccccc1)c1ccccc1)N/N=C\c1ccc2c(c1)OCO2` was active: 34.6%. The value for `COc1cc(CN2CCc3nc(N4CCN(c5ccccn5)CC4)ncc3C2)cc(OC)c1OC` was 6.9%; that for `O=C(Nc1ccc(Cl)cc1C(F)(F)F)c1cc(S(=O)(=O)N2CCOCC2)ccc1F` was 23.1%.

In the case of `Cc1cccc(C(=O)Nc2ccc(S(=O)(=O)N3CCC(c4nc5ccccc5s4)CC3)cc2)c1`, the inhibition was found to be 21%. The value for `CC(=O)c1c(C)c[nH]c1C` was active: 31.1%; that for `COCCCNC(=O)c1cc2cc(S(=O)(=O)N3CCCCC3)ccc2n1C` was -15.4%. The value for `Cc1cc(C)c(NC(=O)CSc2ncc3c(n2)-c2cc(Cl)ccc2N(C)S3(=O)=O)c(C)c1` was -7.16%.

As to `C=Cc1ccc(Cn2c(C(=O)O)c(CNCc3ccc(F)cc3)c3ccc(C)cc32)cc1`, the inhibition turned out to be 4.49%. The value for `CCC(C)(C)NC(=O)C1CCN(S(=O)(=O)c2ccc3c(c2)CCCN3C(C)=O)CC1` was -2.37%. The value for `CCN(CC)S(=O)(=O)c1ccc2c(c1)N(CC(=O)Nc1ccccc1F)C(=O)C1CCCN21` (stereo unspecified) was -11.5%; that for `CCCNC(=O)Cn1c(=O)n(CC2CCC(C(=O)NC)CC2)c(=O)c2sccc21` (stereo unspecified) was 5.39%; that for `CC(C)(C)c1ccc(/C=C/C(=O)Nc2ccc(S(N)(=O)=O)cc2)cc1` was 14.7%. The value for `O=C1CS(=O)(=O)C2(C(=O)N(Cc3ccccc3Cl)c3ccccc32)N1c1ccc(F)cc1` (stereo unspecified) was 9.31%; that for `COc1ccc(Cn2c(C(=O)O)c(CNCCc3ccco3)c3ccc(OC)cc32)cc1` was 4.96%; that for `Cc1ccc(NC(=O)/C(C#N)=C/c2ccc(-c3ccc(Cl)c(C(=O)O)c3)o2)cc1C` was -8.52%.

As to `CCOc1ccc(CCNC(=O)c2cc3cccc4c3n2CCS4)cc1`, the inhibition was 6.93%. As for `COc1cccc(NC(=O)C2CCCN(S(=O)(=O)c3cn(C(C)C)cn3)C2)c1` (stereo unspecified), the inhibition is -11%. `COC(=O)c1c(-c2ccc(Cl)cc2)noc1N1CCN(c2cc(C)ccc2C)CC1`: the inhibition is -13.7%. As for `COc1ccc(N2CCN(c3ncnc4c3cnn4C)CC2)cc1`, the inhibition was 9.25%. For the compound `CCCC(=O)N(c1ccc2oc(C)c(C(C)=O)c2c1)S(=O)(=O)c1ccc(CC)cc1`, the inhibition is -5.69%. The value for `Brc1cccc(-c2nnn3c2nc(NCc2ccc4c(c2)OCO4)c2ccccc23)c1` was 13.5%. The value for `O=C(NCC(c1cccnc1)N1CCc2ccccc21)c1cccc(Br)c1` (stereo unspecified) was -7.17%; that for `CC(C)NC(=O)C1CCC(Cn2c(=O)c3sccc3n(Cc3ccc(F)cc3)c2=O)CC1` (stereo unspecified) was -0.402%; that for `COc1ccc(-n2ncc(C(=O)NCc3ccco3)c2C2CCN(C(=O)OC(C)(C)C)CC2)cc1` was 2.64%. The value for `COc1cc2ccccc2cc1C(=O)Nc1cccc(-c2nc3cc(C)c(C)cc3o2)c1` was 0.595%; that for `Cc1ccccc1CNC(=O)c1cnc2sc(N3CCC(C)CC3)nn2c1=O` was -1.12%. `COC(=O)c1c(NC(=O)c2ccc(S(=O)(=O)N3CCC(C)CC3)cc2)sc2c1CCN(C)C2`: the inhibition was -26.1%. With `Cc1cc(C)c(NC(=O)C2CCN(c3nc4ccccc4n4cccc34)CC2)c(C)c1`, the inhibition is -19.6%. On to `CCOC(=O)C1CCN(c2ncnc3c2nc2n3CCCCC2)CC1`, for which the inhibition was -10.8%.

For the compound `Cc1cccc(C(=O)NCC(c2ccco2)S(=O)(=O)c2cccs2)c1` (stereo unspecified), the inhibition is 26.1%. The value for `Cc1cccc(NC(=O)c2ccc(-c3ccccc3)s2)c1` was 0.998%; that for `CCC(Oc1ccccc1)C(=O)Nc1nnc(S(=O)(=O)N(CC)CC)s1` (stereo unspecified) was -1.65%; that for `CCc1ccc(NC(=O)c2cnn(-c3ccccc3)c2-n2cccc2)cc1` was 8.65%.
